Data taken from PubChem BioAssay AID504332 (National Center for Advancing Translational Sciences (NCATS), 2011).
About 31,000 (8.9%) of roughly 350,000 compounds were called active. This list was built around the results that the source calls inconclusive (neither active nor inactive); the mix of calls is not that of the screen. Calls follow the shape of the dose curve; as a rule, active = well fitted inhibition curve with a large enough effect; inconclusive = small, poorly fitted or top-dose-only effect; inactive = no such curve, though single readings can be large or run the other way. Potencies of inconclusive entries are doubtful fits and often do not repeat. The source holds several records for some structures; these can differ, active in one and inactive in another.
% is scaled to controls: 0 for no effect and ±100 for the full control effect; potency is read from the fitted curve at half-maximal effect; tags tell the direction and shape of the fitted curve.
Also: nearly all actives have a fitted effect of over 75% in size.

These compounds were tested against Histone-lysine N-methyltransferase EHMT2 (Homo sapiens) (UniProt Q96KQ7) (assay: qHTS Assay for Inhibitors of Histone Lysine Methyltransferase G9a). Settings: G9a H3K9 monomethylation, AlphaScreen, 2 h; activity, negative = inhibition: at 59 µM (top of the series) unless noted.
Sequence of UniProt Q96KQ7 (Q96KQ7 whole entry, looked up): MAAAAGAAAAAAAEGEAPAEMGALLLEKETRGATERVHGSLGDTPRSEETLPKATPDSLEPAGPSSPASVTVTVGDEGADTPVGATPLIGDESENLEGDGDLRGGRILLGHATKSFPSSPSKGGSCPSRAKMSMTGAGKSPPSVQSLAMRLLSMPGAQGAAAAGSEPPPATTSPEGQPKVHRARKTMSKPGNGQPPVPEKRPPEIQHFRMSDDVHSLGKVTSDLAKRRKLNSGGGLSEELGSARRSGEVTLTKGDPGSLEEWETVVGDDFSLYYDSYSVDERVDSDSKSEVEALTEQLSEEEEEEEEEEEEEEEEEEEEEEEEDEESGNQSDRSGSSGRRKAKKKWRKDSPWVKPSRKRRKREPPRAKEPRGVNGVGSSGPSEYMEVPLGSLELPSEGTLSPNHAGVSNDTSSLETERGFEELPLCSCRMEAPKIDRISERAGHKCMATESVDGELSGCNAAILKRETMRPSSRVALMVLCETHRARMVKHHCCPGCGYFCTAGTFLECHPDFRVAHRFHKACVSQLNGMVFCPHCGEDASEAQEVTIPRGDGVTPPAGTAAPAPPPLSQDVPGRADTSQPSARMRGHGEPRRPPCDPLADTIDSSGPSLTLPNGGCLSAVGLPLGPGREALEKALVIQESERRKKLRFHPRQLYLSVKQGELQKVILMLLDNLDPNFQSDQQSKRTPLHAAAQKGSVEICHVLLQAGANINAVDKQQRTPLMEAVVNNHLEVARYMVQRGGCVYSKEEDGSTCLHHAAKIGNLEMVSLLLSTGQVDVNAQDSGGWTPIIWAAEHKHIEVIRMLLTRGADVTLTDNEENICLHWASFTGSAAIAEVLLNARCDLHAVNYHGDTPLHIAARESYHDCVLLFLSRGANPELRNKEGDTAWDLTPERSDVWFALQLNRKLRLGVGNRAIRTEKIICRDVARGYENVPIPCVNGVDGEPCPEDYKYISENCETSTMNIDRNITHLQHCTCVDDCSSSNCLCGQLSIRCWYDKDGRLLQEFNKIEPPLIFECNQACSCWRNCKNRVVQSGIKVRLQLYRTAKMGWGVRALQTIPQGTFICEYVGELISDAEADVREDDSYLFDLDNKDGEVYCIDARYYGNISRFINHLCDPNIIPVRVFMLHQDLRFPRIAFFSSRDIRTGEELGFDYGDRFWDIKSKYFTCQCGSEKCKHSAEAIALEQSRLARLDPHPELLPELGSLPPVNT
How it was run: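 Quantitative HTS format: methyltransferase activity on a biotin-tagged H3K9 peptide is measured by AlphaScreen, using a rabbit anti-monomethyl-H3K9 antibody with streptavidin donor and anti-IgG acceptor beads. Final levels are 20 nM enzyme, 500 nM peptide, 20 uM SAM; 2 h RT.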
`COc1ccc(NC(=O)Nc2cccc(C(=O)N3CCOCC3)c2)cc1OC` was tested, and the Potency was inconclusive: 89.1 µM [inhibitor, single point].
For `CCCN(CCC)C(=O)Cn1c(=O)n(CCCCC(=O)NCc2ccco2)c(=O)c2ccccc21`, the Potency was inconclusive: 79.4 µM [inhibitor, single point].
`CC(C)CN(C(=O)CSc1nncs1)c1c(N)n(CC(C)C)c(=O)[nH]c1=O` was tested, and the Potency was active: 10 µM.
With `CC(=O)Oc1cccc(N2C(=O)C3C4C=CC(CC4)C3C2=O)c1` (configuration not stated) the Potency was inconclusive: 79.4 µM [inhibitor, single point].
For `COc1ccc(-c2nnc(SC(C)C(=O)O)o2)cc1` (configuration not stated), the Potency was “inactive”.
With `CC(Oc1ccccc1F)C(=O)NNC(=O)c1cccc(S(=O)(=O)N2CCN(C)CC2)c1` (configuration not stated) the activity, negative = inhibition was inconclusive: -63.6% [inhibitor] [at 0.0925 µM].
For `CC(=O)c1ccc(S(=O)(=O)N(CC(=O)NC2CC2)Cc2ccc(F)cc2)cc1`, the Potency was inconclusive: 44.7 µM [inhibitor, partial curve].
For `CCOC(=O)c1c(NC(=S)Nc2ccc(OC)cc2)sc2c1CCCCC2`, the Potency was inconclusive: 25.1 µM [inhibitor, single point].
With `Cc1ccccc1CC1SC(N)=NC1=O` (configuration not stated) the Potency was active: 31.6 µM.
For `COc1ccc(-n2nc(C(=O)Nc3ccc(C(C)=O)cc3)nc2-c2ccccc2)cc1`, the Potency was inconclusive: 39.8 µM [inhibitor, partial curve, poor fit].
For `COc1cccc(C2C(C(=O)c3cc4ccccc4o3)=C(O)C(=O)N2CCN2CCOCC2)c1` (configuration not stated), the Potency was active: 44.7 µM.
With `CC(C)Oc1ccc(CNC(=O)c2sc3ncccc3c2-n2cccc2)cc1` the Potency was “inactive”.
In the case of `O=C(c1sccc1-n1cccc1)N1CCCC1`, the Potency is reported as inconclusive: 79.4 µM [inhibitor, single point].
`Cn1c(=O)c2c(ncn2CC(=O)Nc2nc3ccc(F)cc3s2)n(C)c1=O` was tested, and the Potency was inconclusive: 39.8 µM [inhibitor, single point].
`Cc1[nH]c2ccc(-c3nnc(SCC(=O)c4ccccc4F)o3)cc2c1C` was tested, and the Potency was inconclusive: 39.8 µM [inhibitor, partial curve, poor fit].
For `O=S(=O)(c1ccc(Cl)cc1)c1nc(-c2cccs2)oc1SCc1ccccc1F`, the Potency was “inactive”.
With `CCC(C)c1ccccc1N1CC(C(=O)Nc2cccc(S(=O)(=O)N3CCOCC3)c2)CC1=O` (configuration not stated) the Potency was “inactive”.
With `O=C(CCc1nnc(Cc2c[nH]c3ccccc23)o1)NC1CCCC1` the Potency was “inactive”.
`COc1cccc(OC)c1OCCCCc1c(C)n[nH]c1C` was tested, and the Potency was inconclusive: 39.8 µM [inhibitor, single point].
In the case of `C=CCNC(=O)/C(=C/c1cn(-c2ccccc2)nc1-c1cccc([N+](=O)[O-])c1)NC(=O)c1ccccc1`, the Potency is reported as inconclusive: 79.4 µM [inhibitor, single point].
`Cc1cn(C)c(CC(=O)Nc2ccc(F)cc2Cl)c1C(=O)O` was tested, and the Potency was “inactive”.
`Cc1cccc(OCCCC(=O)NNC(=O)c2ccncc2)c1` was tested, and the Potency was inconclusive: 79.4 µM [inhibitor, partial curve, poor fit].
For `O=C(CCc1ccc(S(=O)(=O)NC2CCCCC2)cc1)NCc1ccccn1`, the Potency was inconclusive: 15.8 µM [inhibitor, partial curve, poor fit].
For `CC(C)C(C)(C#N)NC(=O)CSc1nc2scc(-c3ccc(F)cc3)c2c(=O)n1Cc1ccccc1` (configuration not stated), the Potency was inconclusive: 70.8 µM [inhibitor, partial curve, poor fit].
`CC(=O)c1cc(CC=C(C)C)c(O)cc1O` was tested, and the Potency was “inactive”.
For `Cc1cc(C)n(-c2nc(NCC3CCCO3)c3c4c(sc3n2)COC(C)(C)C4)n1` (configuration not stated), the Potency was active: 1.78 µM.
In the case of `COc1cccc(CN(c2ccc3c(c2)CCC3)S(=O)(=O)c2ccc(-n3cnnn3)c(OC)c2)c1`, the Potency is reported as “inactive”.
With `N#Cc1c(C(F)(F)F)cc(-c2cccs2)nc1SCc1ccc(Cl)nc1` the activity, negative = inhibition was inactive: 9.37% [at 0.0925 µM].
With `CC1CCN(C(=O)CCc2ccc(Oc3cc([N+](=O)[O-])cc([N+](=O)[O-])c3)cc2)CC1` the Potency was inconclusive: 25.1 µM [inhibitor, single point].
With `CCCn1cc(SCC(=O)Nc2cc(C)on2)c2ccccc21` the Potency was “inactive”.
In the case of `Cc1cc(C)c(-c2cc(NC(=O)COC(=O)c3ccc(C#N)cc3)n(-c3ccccc3)n2)cc1C`, the Potency is reported as active: 31.6 µM.
With `COc1ccc(NC(=S)Nc2ncccc2C)c(OC)c1` the Potency was inconclusive: 2.24 µM [inhibitor, partial curve, poor fit].
In the case of `Cc1ccc(-n2nnc(-c3nccs3)n2)cc1`, the Potency is reported as “inactive”.
With `CC(C)n1c(O)c(N=NC(=O)Cc2csc(N3CCOCC3)n2)c2ccccc21` the Potency was inconclusive: 39.8 µM [inhibitor, full curve].
For `Cc1cc(C(=O)CSc2nc3ccccc3c(=O)n2C)c(C)n1Cc1ccc2c(c1)OCO2`, the Potency was “inactive”.
`CCc1ccc(C(C)NC(=O)c2ccc(F)cc2)cc1` (configuration not stated) was tested, and the Potency was “inactive”.
`O=C(Cn1nc(Cc2ccncc2)c2ccccc2c1=O)N1CCc2ccccc2C1` was tested, and the Potency was inconclusive: 28.2 µM [inhibitor, single point].
With `CCCCOc1ccc(C(=O)Nc2cccc(C)n2)cc1` the activity, negative = inhibition was inactive: -8.53% [at 2.33 µM].
`CC(Sc1ccc(S(=O)(=O)N2CCCCCC2)cn1)C(N)=O` (configuration not stated) was tested, and the Potency was inconclusive: 44.7 µM [inhibitor, partial curve].
For `CN(Cc1ccc(Cl)s1)C(=O)CCl`, the Potency was inconclusive: 2.51 µM [inhibitor, partial curve, poor fit].
In the case of `Cc1ccc2[nH]c(=O)c(CN(CCCN3CCOCC3)C(=O)Nc3cccc(Cl)c3)cc2c1`, the Potency is reported as inconclusive: 39.8 µM [inhibitor, single point].
With `COc1ccc(N2CCN(C(=O)C(C)n3nc(C)c4sc5ccccc5c4c3=O)CC2)cc1` (configuration not stated) the Potency was inconclusive: 10 µM [inhibitor, partial curve, poor fit].
`CCCN(CCO)Cc1ccc2ccccc2c1` was tested, and the Potency was “inactive”.
For `COc1cccc(N2C(=O)/C(=C\c3cccs3)NC2=S)c1`, the Potency was inconclusive: 39.8 µM [inhibitor, full curve].
For `COc1ccc(S(=O)(=O)N2CCOCC2)cc1NS(=O)(=O)/C=C/c1ccccc1`, the Potency was inconclusive: 89.1 µM [inhibitor, single point].
For `CSCCC(NS(=O)(=O)c1ccc(C)cc1)C(=O)NCCc1c[nH]c2ccccc12` (configuration not stated), the Potency was inconclusive: 17.8 µM [inhibitor, partial curve, poor fit].
`Cc1c(C)n(-c2ccccc2)c2ncnc(NCCN(C)C)c12` was tested, and the Potency was inconclusive: 89.1 µM [inhibitor, single point].
In the case of `O=C(c1ccc(F)cc1)C1CCN(CCn2c(=O)[nH]c3ccccc3c2=O)CC1`, the Potency is reported as active: 0.794 µM.
For `CC1CC(C)(C)Nc2ccc(N=O)cc21` (configuration not stated), the Potency was inconclusive: 79.4 µM [inhibitor, single point].
In the case of `CCN(CC(=O)Nc1cc(Cl)ccc1C)C(=O)c1cc(S(=O)(=O)N2CCCCCC2)ccc1OC`, the Potency is reported as inconclusive: 50.1 µM [inhibitor, partial curve, poor fit].
For `CCCc1nc(C(C)(C)O)c(C(=O)O)n1Cc1ccc(-c2ccccc2-c2nn[nH]n2)cc1`, the Potency was inconclusive: 25.1 µM [inhibitor, single point].
In the case of `Cc1ccc(NC(=O)CN2C(=O)N/C(=C/c3ccc(C)s3)C2=O)cc1`, the Potency is reported as inconclusive: 70.8 µM [inhibitor, partial curve, poor fit].
For `Nc1ncn(C(=O)c2ccco2)n1`, the Potency was inconclusive: 70.8 µM [inhibitor, single point].
For `O=C(CCN1CCN(C/C=C/c2ccccc2)CC1)Nc1ccccc1F`, the Potency was inconclusive: 17.8 µM [inhibitor, single point].
With `O=C(NCC1CCCO1)c1ccc([N+](=O)[O-])s1` (configuration not stated) the Potency was inconclusive: 8.91 µM [inhibitor, partial curve, poor fit].
In the case of `O=C(NC(=S)Nc1cccc(NC(=O)c2ccccc2)c1)c1cccc([N+](=O)[O-])c1`, the Potency is reported as “inactive”.
For `Cc1cc(C)n2nc(C(=O)NNC(=O)c3ccccc3)nc2n1`, the Potency was active: 14.1 µM.
With `O=C(CNCCCO)Nc1cc(C(F)(F)F)cc(NC(=O)CNCCCO)c1Cl` the Potency was active: 11.2 µM.
For `COc1ccc(N2CCN(c3nc4ccccc4nc3NS(=O)(=O)c3ccccc3)CC2)cc1`, the Potency was inconclusive: 2.82 µM [inhibitor, partial curve, poor fit].
`COc1ccc(C)c2sc(NC(=O)CCS(=O)(=O)c3ccccc3)nc12` was tested, and the Potency was inconclusive: 89.1 µM [inhibitor, single point].
In the case of `CC(=O)Nc1ccc(S(=O)(=O)NCCC(=O)OCC(=O)c2ccc(Br)cc2)cc1`, the Potency is reported as inconclusive: 79.4 µM [inhibitor, partial curve, poor fit].
`CS(=O)(=O)c1ccc2nc(NC(=O)c3cccc([N+](=O)[O-])c3)sc2c1` was tested, and the Potency was inconclusive: 79.4 µM [inhibitor, partial curve, poor fit].
`COc1cccc(CNC(=O)Cn2nc(C)c3sc4ccccc4c3c2=O)c1OC` was tested, and the Potency was inconclusive: 35.5 µM [inhibitor, partial curve, poor fit].
In the case of `CCCCC(C)(O)C/C=C/[C@H]1[C@H](O)CC(=O)[C@@H]1CCCCCCC(=O)O` (some centres not stated), the Potency is reported as “inactive”.
For `O=C(NCCCN1CCN(c2cccc(Cl)c2)CC1)c1ccc2nc(Cc3ccccc3)oc2c1`, the Potency was inconclusive: 31.6 µM [inhibitor, single point].
`COc1ccc(-n2cc(C(=O)O)c(=O)cc2C)cc1` was tested, and the Potency was active: 44.7 µM.
For `O=C1CN(C(=O)COC(=O)c2ccccc2Br)c2ccccc2N1`, the Potency was inconclusive: 2 µM [inhibitor, partial curve, poor fit].
